B1: 6C11: human anti-TMEFF1 IgG1 antibody; VH SEQ ID NO: 56, VL SEQ ID NO: 60 (antibody, V domains shown)
VH: QVQLQQSGPGLVKPSQTLSLTCAISGDSVSSNSAAWNWIRQSPSRGLEWLGRTYYRSKWYNDYPVSVKSRITINPDTSKNQVSLQLNPVTPEDTAVYYCTREQGYSSSRYYYYYGMDVWGQGTTVTVSS
VL: [letters of about 120 residues omitted]
B2: 7F12: human anti-TMEFF1 IgG1 antibody; VH SEQ ID NO: 103, VL SEQ ID NO: 106 (antibody, V domains shown)
VH: QVQLVESGGGVVQPGRSLRLSCAASGFTFSIYGMHWVRQAPGKGLEWVAIIWYDGSDKYYADSVKGRFTISRDNSKNTLYLQMNSLRAEDTAVYYCARDPYTTSLDYWGQGTLVTVSS
VL: [letters of about 100 residues omitted]
B3: 43A12H: human anti-TMEFF1 IgG1 antibody; VH SEQ ID NO: 49, VL SEQ ID NO: 53 (antibody, V domains shown)
VH: QVQLVESGGGVVQPGRSLRLSCAASGFTFRSYGMHWVRQAPGKGLEWVAVIWYDGSIKYYADSVKGRFTISRDNSKNTLYVQMNSLRAEDTAVYYCARDRDYFGSGYYSNVRYYYYGMDVWGQGTTVTVSS
VL: [letters of about 100 residues omitted]PLTFGGGTKVEIK

test system: hTMEFF1-ECD recombinant deletion mutants; experiment: Binding domain determination with hTMEFF1-ECD deletion mutants (Octet); design: species or system human; key: FS1—follistatin domain 1; FS2—follistatin domain 2; conditions: full length TMEFF1 ECD vs ΔFS1, ΔFS2, ΔFS1&FS2
Source text: TMEFF1 recombinant proteins expressing 3 different deletion mutants, AFS1 (AFollistatin Domain 1), AFS2 (AFollistatin Domain 2) or AFS1&FS2 were used to identify binding domains among different antibodes using an Octet Red instrument with Anti-Penta-His (HIS 1K) biosensors. Expression of the 3 deletion mutants was confirmed by WB analysis. 100 ngs of purified TMEFF1 ECD was run along with unpurified supernatant of transfected CHO cells with the different deletion mutants. HIS 1K biosensors were loaded by submerging the biosensors into wells containing 10 ug/ml of full length TMEFF1 or one of 3 different deletion mutants (AFS1, AFS2 or AFS1&FS2) for 60 seconds. Following the loading step, the biosensors were then dipped for 30 seconds in PBS before immersion for 30 seconds in 200 ul of unpurified recombinant antibodies for 30 seconds. The biosensors were then dipped briefly (30 seconds) in PBS to observe any dissociation. Samples were determined to show binding or no binding by comparing to a control well that contained no recombinant antibody. Differential binding to the deletion mutants allowed for determination of binding sites on TMEFF1 recombinant protein. For cases where the antibody bound all 3 recombinant proteins, the binding is outside of the deleted domains. For the case where binding is observed only on full length TMEFF1 and AFS2, the antibody is binding in the ΔFS1 domain.
26 of the identified antibodies were checked for epitope domain binding by Octet™ using the hTMEFF1-ECD recombinant deletion mutants (see Table 7, below).

**Q.** How did the “Binding region (epitope domain binding)” value turn out when B1 was run?
**A.** Its value is “FS1”.

**Q.** For B2, which “Binding region (epitope domain binding)” value is on record?
**A.** The value was “FS1”.

**Q.** For B3, which “Binding region (epitope domain binding)” value is on record?
**A.** The value was “FS1”.

From patent US11312769B2, “Anti-TMEFF1 antibodies and antibody drug conjugates” (Bluefin BioMedicine, Inc., priority 2017, dated 2022)
